Experimental data from PubChem BioAssay AID2147 (National Center for Advancing Translational Sciences (NCATS), 2009).
Hit rate of the full screen: of about 230,000 compounds, about 3,600 (1.6%) were called active. The inconclusive results got no clear call from the source; some entries with a clear call stand among them for comparison. The call rests on the fitted dose curve; in most records, active means well fitted inhibition curve with a large enough effect (not every such curve was filed as active); inconclusive means small, poorly fitted or top-dose-only effect, or another doubt; inactive means no such curve, though single readings can be large or run the other way. A potency beside an inconclusive call is a rough fit, not a confirmed value.

What follows are compounds tested against Lysine-specific demethylase 4E (Homo sapiens) (UniProt B2RXH2) (assay: qHTS Assay for Inhibitors of Human Jumonji Domain Containing 2E (JMJD2E)). Conditions: JMJD2E catalytic domain, FDH-coupled NADH fluorescence (FDH is formaldehyde dehydrogenase); series mostly up to 57.1 µM; activity change, negative = inhibition: at the top concentration.
Further: nearly all actives have a fitted effect of over 50% in size.
Potency means the concentration at half of the fitted maximal effect; tags describe the fitted curve by direction and shape.
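Wherever activity change, negative = inhibition is given: 0% = wells with enzyme and -100% = buffer wells without enzyme.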

UniProt B2RXH2, sequence (B2RXH2 whole entry, looked up, the tested form may be a part): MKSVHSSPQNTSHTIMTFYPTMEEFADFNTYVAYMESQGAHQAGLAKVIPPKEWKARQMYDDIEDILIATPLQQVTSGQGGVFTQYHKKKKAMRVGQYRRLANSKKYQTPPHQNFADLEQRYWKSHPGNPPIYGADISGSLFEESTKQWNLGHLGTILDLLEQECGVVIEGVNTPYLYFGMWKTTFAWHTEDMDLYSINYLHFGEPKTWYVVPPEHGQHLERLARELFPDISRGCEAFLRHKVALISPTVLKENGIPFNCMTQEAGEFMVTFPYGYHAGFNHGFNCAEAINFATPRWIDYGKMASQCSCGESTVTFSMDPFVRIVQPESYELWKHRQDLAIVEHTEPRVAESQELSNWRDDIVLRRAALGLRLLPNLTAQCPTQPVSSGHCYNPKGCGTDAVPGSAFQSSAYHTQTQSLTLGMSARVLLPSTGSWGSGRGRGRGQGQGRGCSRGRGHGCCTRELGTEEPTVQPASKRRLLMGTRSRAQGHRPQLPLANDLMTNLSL

Structure (SMILES) | Potency | activity change, negative = inhibition
O=c1cc(CN2CCN(S(=O)(=O)/C=C/c3ccccc3)CC2)c2ccc(O)cc2o1 | inconclusive: 28.2 µM [inhibitor, partial curve] | 
COc1cc(/C=N/NC(=O)CC2(C)OCCO2)cc(Br)c1O | inconclusive: 31.6 µM [inhibitor, partial curve] | 
CCOc1ccc(-c2nn(-c3ccccc3)cc2/C=C2\SC(N)=NC2=O)cc1C | inconclusive: 28.2 µM [inhibitor, single point] | 
Cc1cc(C)n(-c2nc(NC(C)(C)C)nc(NC(C)(C)C)n2)n1 |  | inactive: 9.44%
C=CCN1C(=O)N/C(=C/c2ccc(C)o2)C1=O | active: 17.8 µM | 
COc1cccc(C2C3CN(C)CC=C3C(C#N)=C(N)C2(C#N)C#N)c1OC (configuration not stated) | inconclusive: 28.2 µM [inhibitor, partial curve] | 
C(=C\c1ccc2ccccc2n1)/c1ccccc1 | inconclusive: 35.5 µM [inhibitor, partial curve] | 
O=C(N/N=C\c1cccc([N+](=O)[O-])c1O)C1COc2ccccc2O1 (configuration not stated) | inconclusive: 25.1 µM [inhibitor, single point] | 
Cc1cc(C)n2c(=S)[nH]nc2n1 | active: 7.08 µM | 
Cc1cccc(COc2ncnc3nc[nH]c23)c1 |  | inactive: 2.64%
Cc1ccccc1-n1c(O)c(C=NC2CCS(=O)(=O)C2)c2ccccc2c1=O (configuration not stated) | inconclusive: 25.1 µM [inhibitor, single point] | 
O=C1NCCCC2c3c(cc(Br)c(O)c3Br)OC12N1CCCCC1 (configuration not stated) | inconclusive: 17.8 µM [inhibitor, single point] | 
O=C(O)[C@H]1C[C@@H](CP(=O)(O)O)CCN1 |  | inactive: -16.7%
COC(=O)c1cccc2nc3c(C(C)O)cccc3nc12 (configuration not stated) | inconclusive: 39.8 µM [inhibitor, single point] | 
C=CCOc1c(/C=N\NC(N)=O)cccc1OC | inconclusive: 28.2 µM [inhibitor, partial curve] | 
CCOC(=O)CC(=O)CSc1nc(C)nc2c1oc1ccccc12 | inconclusive: 35.5 µM [inhibitor, single point] | 
Cc1cc2ccccc2n2c(SCC(=O)NCC3CCCO3)nnc12 (configuration not stated) | inconclusive: 31.6 µM [inhibitor, single point] | 
CCCn1c(=N)c(C(=O)NCc2ccc3c(c2)OCO3)cc2c(=O)n3cccc(C)c3nc21 | inconclusive: 25.1 µM [inhibitor, single point] | 
COc1cc(C2C(C#N)=C(N)Oc3cc(N)ccc32)cc(OC)c1OC (configuration not stated) |  | inactive: 2.59%
CC1=CC(=C(C#N)C#N)C=C(C)N1CCC(C)C | inconclusive: 35.5 µM [inhibitor, single point] | 
CCOC(=O)CSC1=C(C#N)C(=O)NC2(CCCCC2)S1 | inconclusive: 39.8 µM [inhibitor, single point] | 
COc1ccc(Nc2cc(C(=O)NCCCN3CCOCC3)c3ccccc3n2)c(OC)c1 |  | inactive: 5.66%
Cc1ccc(-c2nn(-c3ccccc3)cc2NC(=O)CCl)cc1 | inconclusive: 28.2 µM [inhibitor, partial curve] | 
CCCCNC(=O)C1CCN(S(=O)(=O)c2c(C)noc2/C=C\c2ccc(OC)cc2)CC1 |  | inactive: -21.3%

Structure (SMILES) | Potency | activity change, negative = inhibition
NC(=O)c1oc2ccccc2c1NC(=O)C1CCCCC1 | inconclusive: 39.8 µM [inhibitor, single point] | 
Cc1cc(NS(=O)(=O)c2ccc(NC(=S)NC(=O)c3ccc(Cl)cc3Cl)cc2)no1 |  | inactive: 7.18%
COc1ccccc1/C=C/C(=O)OCC(=O)c1c(N)n(C)c(=O)n(C)c1=O | inconclusive: 35.5 µM [inhibitor, single point] | 
COC(=O)C(=O)/C=C(\O)c1c(C)cc(C)cc1C |  | inactive: -24.8%
O=C(NN=C1CCN(Cc2ccccc2)CC1)c1cc(Br)ccc1O | inconclusive: 35.5 µM [inhibitor, single point] | 
Cn1c(=O)oc2cc(S(=O)(=O)NCCC(=O)N3CC=C(c4ccccc4)CC3)ccc21 | inconclusive: 39.8 µM [inhibitor, single point] | 
Cc1cccc(N2C(=O)/C(=C\c3ccc(OC(F)F)cc3)c3ccccc3C2=O)c1 | inconclusive: 12.6 µM [inhibitor, partial curve] | 
O=C(NCc1ccccc1)Nc1cccn(Cc2ccccc2Cl)c1=O | inconclusive: 35.5 µM [inhibitor, partial curve] | 
CO/N=C/NC(=O)c1ccc([N+](=O)[O-])c(CS(=O)(=O)c2ccc(Cl)cc2)c1 |  | inactive: -1.2%
CC(=O)Nc1ccc(OS(=O)(=O)c2ccc([N+](=O)[O-])cc2)cc1 |  | inactive: -9.66%
O=C(c1cccc(Oc2ccc([N+](=O)[O-])cc2Cl)c1)N1CCCCC1 |  | inactive: -8.58%
COc1cc(/C=C/C(=O)OCC(=O)c2c(N)n(C)c(=O)n(C)c2=O)ccc1OC(F)F | inconclusive: 28.2 µM [inhibitor, partial curve] | 
CCn1c(SCC(=O)NCc2ccco2)nnc1-c1ccncc1 |  | inactive: 6.58%
CCC1CCc2c(sc(NC(=O)CSc3nc(-c4ccco4)cc(C(F)(F)F)n3)c2C#N)C1 (configuration not stated) | inconclusive: 22.4 µM [inhibitor, single point] | 
Clc1ccc2nc(NC3=NCN(CCN4CCOCC4)CN3)nc(-c3ccccc3)c2c1 | inconclusive: 28.2 µM [inhibitor, single point] | 
COc1cc(-c2nnc(SCC(=O)c3cc(C)n(CC4CCCO4)c3C)o2)cc(OC)c1OC (configuration not stated) | inconclusive: 22.4 µM [inhibitor, partial curve] | 
Cc1c(C(=O)Nc2ccc(OC(F)(F)F)cc2)sc2nc3n(c(=O)c12)CCC3 |  | inactive: 11.8%
COC(=O)c1sc2nc(C)cc(C)c2c1N | inconclusive: 28.2 µM [inhibitor, partial curve] | 
Cc1ccc(/C=N/N=C2/NC(=O)C(CC(=O)Nc3ccc(Cl)cc3)S2)o1 (configuration not stated) |  | inactive: 5.63%
O=C(Oc1ccccc1/C=C\C(=O)c1cc2ccccc2o1)c1ccccc1 |  | inactive: -15%
Cc1ccccc1-c1nnnn1C1CCS(=O)(=O)C1 (configuration not stated) |  | inactive: 2.26%
Cc1cc(SCC(=O)N/N=C/c2ccc(O)c(O)c2O)c(C)cc1Br | active: 10 µM | 
Cc1ccc(-c2nc(C#N)c(N3CCCCC3)o2)cc1 | inconclusive: 28.2 µM [inhibitor, partial curve] | 
